30 molecules from PubChem BioAssay AID1745853 (National Center for Advancing Translational Sciences (NCATS), 2022) can be followed below.

Molecules are shown by their SMILES. Values joined by “and” are separate entries in the source; they are usually repeats but may differ in a detail not shown here. Equal values may be shown once. Some of the results follow. Further columns of the screen follow, without active or inactive calls.

Assay in all cases: Primary Screen for Target Class Profiling of Small Molecule Inhibitors of Methyltransferases
The target of assay [1] is Glycine N-methyltransferase (Homo sapiens) (UniProt Q14749). To be noted: purified enzyme, MTase-Glo SAH luminescence; measured here: GNMT inhibition; at 40 µM; stronger effect = lower value. Summed up: (§1)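 Each enzyme was reacted with SAM and its substrate, with compounds tested once at 40 uM; SAH formed was read by MTase-Glo luminescence.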
The target of assay [2] is Guanidinoacetate N-methyltransferase (Homo sapiens) (UniProt Q14353). The conditions noted are these: purified enzyme, MTase-Glo SAH luminescence; measured here: GAMT inhibition; at 40 µM; stronger effect = lower value. Summed up: as §1
The target in assay [3] is Histamine N-methyltransferase (Homo sapiens) (UniProt P50135). To be noted: purified enzyme, MTase-Glo SAH luminescence; measured here: HNMT inhibition; at 40 µM; stronger effect = lower value. Summed up:
as §1

Assay [4] concerns the target Nicotinamide N-methyltransferase (Homo sapiens) (UniProt P40261). The conditions noted are these: purified enzyme, MTase-Glo SAH luminescence; measured here: NNMT inhibition; at 40 µM; stronger effect = lower value. Summed up: as §1
Assay [5] deals with Phenylethanolamine N-methyltransferase (Homo sapiens) (UniProt P11086). The conditions noted are these: purified enzyme, MTase-Glo SAH luminescence; measured here: PNMT inhibition; at 40 µM; stronger effect = lower value. Summed up: as §1
On the % scale 0 is the no-effect control and ±100 the full control effect.

`Cc1cccc(NC(=O)CSc2nnc3n(C)c(=O)c4ccc(C(=O)NC5CCCCC5)cc4n23)c1`: the activity change, negative = inhibition in assay [1] was 0.849%; in assay [2] it was 0%; in assay [3], 1.72%; in assay [4] it was 5.17%; in assay [5] it was 3.02%.

Consider `O=C(Cn1nc2n(Cc3ccc(F)cc3)c(=O)c3ccccc3n2c1=O)NC1CCCCC1`, for which the activity change, negative = inhibition in assay [1] was determined as 5.25%; in assay [2], 0%; in assay [3] it was 5.37%; in assay [4] it was 1.95%; in assay [5], 2.46%.

Turning to `CC(=O)NC[C@H]1CN(c2ccc(N3CCOCC3)c(F)c2)C(=O)O1`, the activity change, negative = inhibition in assay [1] was 5.71% and 2.79%; in assay [2] it was 15.2% and 5.31%; in assay [3] it was 12.5% and 14.4%; in assay [4] it was -1.92% and -8.17%; in assay [5], 2.32% and 5.15%.

Consider `CC(C)Cn1c(=O)c2ccc(C(=O)NC3CCCC3)cc2n2c(=O)n(Cc3ccccc3)nc12`, for which the activity change, negative = inhibition in assay [1] is -2%; in assay [2] it was 3.83%; in assay [3], -1.52%; in assay [4] it was 2.83%; in assay [5], 1.85%.

In the case of `COCCNC(=O)CCc1nnc2n(Cc3ccc(F)cc3)c(=O)c3ccccc3n12`, the activity change, negative = inhibition in assay [1] was -11.8%; in assay [2], 4.3%; in assay [3], -2.07%; in assay [4] it was 3.81%; in assay [5], -2.59%.

As for `COc1cccc(S(=O)(=O)N2C[C@@H](F)C[C@H]2C(=O)N2CCc3ccccc3C2)c1`, the activity change, negative = inhibition in assay [1] was -7.57%; in assay [2], -3.16%; in assay [3] it was -0.324%; in assay [4] it was -10.1%; in assay [5] it was -8.01%.

Regarding `CN1C(=O)c2cc(C(=O)NCc3ccccc3Cl)nn2CC1(C)C(=O)NC1CCCCC1` (stereo not given), the activity change, negative = inhibition was -0.449% in assay [1]; -0.72% in assay [2]; 2.55% in assay [3]; 0.157% in assay [4]; -0.704% in assay [5].

In the case of `[Li+]`, the activity change, negative = inhibition was 3.14% in assay [1]; 8.31% in assay [2]; 3.86% in assay [3]; -4.85% in assay [4]; 7.84% in assay [5].

On to `Cn1sc(=O)n(Cc2ccccc2)c1=O`, for which the activity change, negative = inhibition in assay [1] was 2.4%; in assay [2] it was 3.14%; in assay [3], 4.88%; in assay [4] it was -8.93%; in assay [5] it was 1.61%.

Consider `O=C(CCn1ccc(=O)[nH]c1=O)N[C@H](c1cccs1)C1CC(O)C1` (stereo not given in full), for which the activity change, negative = inhibition in assay [1] is 0.095%; in assay [2], 6.36%; in assay [3] it was -2.1%; in assay [4], 3.66%; in assay [5] it was 2.82%.

For `CCCNC(=O)C1COC2(CCN(C(=O)Cc3ccccc3)CC2)N1C(=O)c1cccc(C)c1` (stereo not given), the activity change, negative = inhibition in assay [1] is -2.65%; in assay [2] it was -1.14%; in assay [3], 0.131%; in assay [4], 4.57%; in assay [5], 4.73%.

As to `COC[C@H]1CCCN1Cc1nc(C2(O)CCN(C(=O)CC(C)(C)C)CC2)cs1`, the activity change, negative = inhibition was -5.86% in assay [1]; -5.31% in assay [2]; -2.35% in assay [3]; -7% in assay [4]; 12% in assay [5].

On to `O=C(c1cc(-c2ccc(F)cc2)n[nH]1)N1CCC(OCC2CC2)C1` (stereo not given), for which the activity change, negative = inhibition in assay [1] is -14.6%; in assay [2] it was -6.34%; in assay [3] it was -4.08%; in assay [4], -14.8%; in assay [5] it was -11.7%.

Turning to `Cc1ccc(CN2C(=O)c3cc4occc4n3CC2(C)C(=O)NC2CCCCCCC2)cc1` (stereo not given), the activity change, negative = inhibition was -2.33% in assay [1]; 0% in assay [2]; 2.63% in assay [3]; -5.99% in assay [4]; -2.56% in assay [5].

On to `O=C(Cn1c(=O)oc2cc(S(=O)(=O)NCc3ccccc3)ccc21)N1CCCCC1`, for which the activity change, negative = inhibition in assay [1] was -3.52%; in assay [2], 0%; in assay [3], 4.36%; in assay [4], 7.89%; in assay [5], -2.94%.

For the molecule `CCOC(=O)C(C)Oc1ccc2c(-c3ccccc3)cc(=O)oc2c1` (stereo not given), the activity change, negative = inhibition was -2.37% in assay [1]; 0% in assay [2]; 6.94% in assay [3]; -8.24% in assay [4]; -10.1% in assay [5].

On to `CCCCNc1nc2c(-c3ccc(OC)cc3)nnn2c2ccccc12`, for which the activity change, negative = inhibition was 0.441% in assay [1]; 1.11% in assay [2]; -1.12% in assay [3]; 3.36% in assay [4]; -2.11% in assay [5].

Turning to `CCNC(=O)N1CCC[C@@H](O)[C@H](NC(=O)c2ccc(OCc3c(C)noc3C)cc2)C1`, the activity change, negative = inhibition was -5.26% in assay [1]; 0.887% in assay [2]; -0.595% in assay [3]; -0.615% in assay [4]; -1.03% in assay [5].

For the molecule `COc1ccccc1N1CCN([C@@H]2[C@H](O)[C@H](CO)O[C@@H]2CNC2CCCCC2)CC1`, the activity change, negative = inhibition in assay [1] was -5.41%; in assay [2] it was -8.42%; in assay [3] it was -4.81%; in assay [4], -8.87%; in assay [5], -8.28%.

Regarding `CCOc1ccc(CN2C(=O)c3cc(-c4cccs4)nn3CC2(C)C(=O)NC2CCCCC2)cc1` (stereo not given), the activity change, negative = inhibition in assay [1] is -2.83%; in assay [2], 5.98%; in assay [3], 2.31%; in assay [4], 5.79%; in assay [5], -0.144%.

On to `OC[C@@]1(O)CO[C@H](OC[C@H]2O[C@@H](OC(CCCCc3ccc(O)cc3)CCc3ccc(O)cc3)[C@H](O[C@H]3OC[C@](O)(CO)[C@H]3O)[C@@H](O)[C@@H]2O)[C@@H]1O` (stereo not given in full), for which the activity change, negative = inhibition is 0% in assay [1]; 7.18% in assay [2]; 9.48% in assay [3]; -5.3% in assay [4]; 6.96% in assay [5].

On to `COC(=O)c1ncn2c1C(=O)N(c1cc(C)ccc1C)C(C)(C(=O)NC1CCCC1)C2` (stereo not given), for which the activity change, negative = inhibition was 1.29% in assay [1]; 1.98% in assay [2]; -8.24% in assay [3]; 0.663% in assay [4]; -3.44% in assay [5].

As to `CC1CCCCC1NC(=O)C1(C)Cn2c(cc3occc32)C(=O)N1Cc1cccc(Cl)c1` (stereo not given), the activity change, negative = inhibition in assay [1] was -9.69%; in assay [2], 5.39%; in assay [3], -5.32%; in assay [4], -9.7%; in assay [5], -4.56%.

As to `C=C(C)[C@@H]1CC=C(COC(=O)NC(=O)c2ncn3c(=O)n(C)nnc23)CC1`, the activity change, negative = inhibition in assay [1] was -10.4%; in assay [2], -24.8%; in assay [3], -5.2%; in assay [4], -39.9%; in assay [5], -15.3%.

For `CCCn1c(=O)c2ccc(C(=O)NCC(C)C)cc2n2c(SCC(=O)c3ccc(C)cc3)nnc12`, the activity change, negative = inhibition in assay [1] was 6.75%; in assay [2] it was 0.799%; in assay [3] it was 8.2%; in assay [4], 5.52%; in assay [5] it was 3.23%.

In the case of `Cc1ccc(C)c(N2CCN(CCN3C(=O)c4ccc(-c5ccco5)n4CC3(C)C(=O)NC3CCCCCC3)CC2)c1` (stereo not given), the activity change, negative = inhibition in assay [1] is -9.6%; in assay [2] it was 0.92%; in assay [3], -10.7%; in assay [4] it was -9.7%; in assay [5] it was -6.23%.

As for `Cc1ccc(NC(=O)N2CCn3cccc3C2Cc2ccccc2)c(C)c1` (stereo not given), the activity change, negative = inhibition was -1.39% in assay [1]; 0.894% in assay [2]; -2.13% in assay [3]; -3.16% in assay [4]; -5.1% in assay [5].

For `COc1cc2c(cc1CN1CCn3nc(C(O)CO)cc3C1)OCCO2` (stereo not given), the activity change, negative = inhibition in assay [1] was -3.34%; in assay [2], -0.445%; in assay [3], -0.527%; in assay [4] it was -11.2%; in assay [5], -15.7%.

For `O=C1[C@H]2CN(Cc3cccc(Cl)c3F)C[C@H]2C(=O)N1Cc1ccc2c(c1)OCO2`, the activity change, negative = inhibition is -9.19% in assay [1]; -11.3% in assay [2]; -4.39% in assay [3]; -16.3% in assay [4]; -13.5% in assay [5].

For the molecule `CC1CCN(S(=O)(=O)c2ccc3c(ccn3CC(=O)NCc3ccco3)c2)CC1`, the activity change, negative = inhibition in assay [1] worked out at 2.01%; in assay [2], 6%; in assay [3], 6.94%; in assay [4], 4.77%; in assay [5], 4.25%.
